Some of the results follow. Single values are uncertain, as repeats are few or missing.
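Also: cell number obtained by counting DAPI-stained nuclei in high-throughput microscope images with image analysis software, screen run in 1,536-well plates.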

The first experiment concerns SkMel28. The experiment in a line: cell count relative to DMSO control; melanoma cells; higher = more viable cells. The conditions noted are these: library dose: low library concentration; 72 h.
`O=C(O)[C@@H]1[O][Sb](=[O])([O][Sb]2(=[O])[O][C@H]([C@H](O)CO)[C@H](O)[C@H](C(=O)O)[O]2)[O][C@H]([C@H](O)CO)[C@@H]1O` (some centres undefined) [stibogluconate] + Cn1nnc2c(C(N)=O)ncn2c1=O [temozolomide] (first compound 2 µM, partner dose 2 µM): the cell count came to 77.9%.
`O=C(O)[C@@H]1[O][Sb](=[O])([O][Sb]2(=[O])[O][C@H]([C@H](O)CO)[C@H](O)[C@H](C(=O)O)[O]2)[O][C@H]([C@H](O)CO)[C@@H]1O` (some centres undefined) [stibogluconate] + CC(C)(C)c1cnc(CSc2cnc(NC(=O)C3CCNCC3)s2)o1 [SNS-032] (first compound 2 µM, partner dose 0.01 µM) showed a cell count of 85.8%.
In turn, `O=C(O)c1ccc2c(c1)nc(Nc1cccc(Cl)c1)c1ccncc12` + CO[C@@H]1[C@H](N(C)C(=O)c2ccccc2)C[C@H]2O[C@]1(C)n1c3ccccc3c3c4c(c5c6ccccc6n2c5c31)C(=O)NC4 [Midostaurin] (first compound 0.4 µM, partner dose 0.08 µM) displayed a cell count of 112%.
Consider `O=C(O)[C@@H]1[O][Sb](=[O])([O][Sb]2(=[O])[O][C@H]([C@H](O)CO)[C@H](O)[C@H](C(=O)O)[O]2)[O][C@H]([C@H](O)CO)[C@@H]1O` (some centres undefined) [stibogluconate] + COCC[n+]1c2c(n(Cc3cnccn3)c1C)C(=O)c1ccccc1C2=O [YM155] (first compound 2 µM, partner dose 0.0004 µM), for which the cell count was 79.9%.
`O=C(Nc1cc(C(F)(F)F)cc(C(F)(F)F)c1)c1cc(Cl)ccc1O` + NC1(c2ccc(-c3nc4ccn5c(=O)[nH]nc5c4cc3-c3ccccc3)cc2)CCC1 [MK2206] (first compound 0.016 µM, partner dose 0.4 µM) yielded a cell count of 75.2%.
Same read-out and setting: next, `O=C(Nc1cc(C(F)(F)F)cc(C(F)(F)F)c1)c1cc(Cl)ccc1O` + O=c1[nH]nc(Sc2ncc([N+](=O)[O-])s2)n1-c1ccc2c(c1)OCCO2 [BI78D3] (first compound 0.016 µM, partner dose 0.2 µM): 109%; `O=C(O)[C@@H]1[O][Sb](=[O])([O][Sb]2(=[O])[O][C@H]([C@H](O)CO)[C@H](O)[C@H](C(=O)O)[O]2)[O][C@H]([C@H](O)CO)[C@@H]1O` (some centres undefined) [stibogluconate] + Nc1cccc2c1CN(C1CCC(=O)NC1=O)C2=O [lenalidomide] (first compound 2 µM, partner dose 1 µM): 105%; `Cn1nnc2c(C(N)=O)ncn2c1=O` [temozolomide] + CN(NC(=O)CC(=O)NN(C)C(=S)c1ccccc1)C(=S)c1ccccc1 [STA4783] (first compound 2 µM, partner dose 0.006 µM): 73.1%.

Another experiment concerns SkMel2. Described as above. The conditions noted are these: library dose: low library concentration; 72 h.
`O=C(O)[C@@H]1[O][Sb](=[O])([O][Sb]2(=[O])[O][C@H]([C@H](O)CO)[C@H](O)[C@H](C(=O)O)[O]2)[O][C@H]([C@H](O)CO)[C@@H]1O` (some centres undefined) [stibogluconate] + CN(C)S(=O)(=O)c1ccc2c(c1)/C(=C/c1cc3c([nH]1)CCCC3)C(=O)N2 [SU6656] (first compound 2 µM, partner dose 0.4 µM): the cell count was found to be 116%.
For the compound `O=C(O)c1ccc2c(c1)nc(Nc1cccc(Cl)c1)c1ccncc12` + C[C@]1(c2nc3c(C(N)=O)cccc3[nH]2)CCCN1 [Veliparib] (first compound 0.4 µM, partner dose 1.4 µM), the cell count came out at 91.6%.
In turn, `O=C(Nc1cc(C(F)(F)F)cc(C(F)(F)F)c1)c1cc(Cl)ccc1O` + NC(=O)c1ccc(N(C(N)=O)c2c(F)cccc2F)nc1-c1ccc(F)cc1F [VX702] (first compound 0.016 µM, partner dose 0.4 µM) displayed a cell count of 102%.
In turn, `O=C(Nc1cc(C(F)(F)F)cc(C(F)(F)F)c1)c1cc(Cl)ccc1O` + Cn1cnc2c(F)c(Nc3ccc(Br)cc3Cl)c(C(=O)NOCCO)cc21 [selumetinib] (first compound 0.016 µM, partner dose 0.015 µM) had a cell count of 88.7%.
`O=C(O)c1ccc2c(c1)nc(Nc1cccc(Cl)c1)c1ccncc12` + O=C1NC(=O)/C(=C/c2ccc(-c3ccc(F)cc3O)o2)S1 [AS252424] (first compound 0.4 µM, partner dose 1 µM) had a cell count of 94.2%.
Regarding `O=C(Nc1cc(C(F)(F)F)cc(C(F)(F)F)c1)c1cc(Cl)ccc1O` + O=C(O)[C@@H]1[O][Sb](=[O])([O][Sb]2(=[O])[O][C@H]([C@H](O)CO)[C@H](O)[C@H](C(=O)O)[O]2)[O][C@H]([C@H](O)CO)[C@@H]1O [stibogluconate] (first compound 0.016 µM, partner dose 2 µM), the cell count worked out at 118%.
Regarding `O=C(O)c1ccc2c(c1)nc(Nc1cccc(Cl)c1)c1ccncc12` + OCc1c[nH]c2ccccc12 [Indole-3-carbinol] (first compound 0.4 µM, partner dose 0.8 µM), the cell count is 105%.
Still for that read-out and setting: next, `O=C(Nc1cc(C(F)(F)F)cc(C(F)(F)F)c1)c1cc(Cl)ccc1O` + COc1cc2ncnc(Nc3ccc(Oc4ccccc4)cc3)c2cc1OC [SrcI1] (first compound 0.016 µM, partner dose 2 µM): 111%.
In the case of `O=C(O)[C@@H]1[O][Sb](=[O])([O][Sb]2(=[O])[O][C@H]([C@H](O)CO)[C@H](O)[C@H](C(=O)O)[O]2)[O][C@H]([C@H](O)CO)[C@@H]1O` (some centres undefined) [stibogluconate] + COc1cc(Nc2ncc(F)c(Nc3ccc4c(n3)NC(=O)C(C)(C)O4)n2)cc(OC)c1OC [Tamatinib] (first compound 2 µM, partner dose 0.4 µM), the cell count was determined as 99.5%.
`O=C(Nc1cc(C(F)(F)F)cc(C(F)(F)F)c1)c1cc(Cl)ccc1O` + CC1(C)CCC(c2ccc(Cl)cc2)=C(CN2CCN(c3ccc(C(=O)NS(=O)(=O)c4ccc(N[C@H](CCN5CCOCC5)CSc5ccccc5)c(S(=O)(=O)C(F)(F)F)c4)cc3)CC2)C1 [ABT263] (first compound 0.016 µM, partner dose 0.4 µM) gave a cell count of 91.3%.
`O=C(Nc1cc(C(F)(F)F)cc(C(F)(F)F)c1)c1cc(Cl)ccc1O` + CC(C)CCN1c2nc(Nc3cc(F)c(O)c(F)c3)ncc2N(C)C(=O)C1C [BID1870] (first compound 0.016 µM, partner dose 0.2 µM) showed a cell count of 104%.
Regarding `O=C(Nc1cc(C(F)(F)F)cc(C(F)(F)F)c1)c1cc(Cl)ccc1O` + O=C(Nc1cccc(Cl)c1)Nc1ncc(CCNc2ncnc3ccsc23)s1 [SNS314] (first compound 0.016 µM, partner dose 0.0008 µM), the cell count was determined as 95.3%.
Compound `O=C(O)[C@@H]1[O][Sb](=[O])([O][Sb]2(=[O])[O][C@H]([C@H](O)CO)[C@H](O)[C@H](C(=O)O)[O]2)[O][C@H]([C@H](O)CO)[C@@H]1O` (some centres undefined) [stibogluconate] + CCc1ccc(CCOc2ccc(CC3SC(=O)NC3=O)cc2)nc1 [pioglitazone] (first compound 2 µM, partner dose 2 µM) yielded a cell count of 105%.
Same read-out and setting: next, `O=C(O)[C@@H]1[O][Sb](=[O])([O][Sb]2(=[O])[O][C@H]([C@H](O)CO)[C@H](O)[C@H](C(=O)O)[O]2)[O][C@H]([C@H](O)CO)[C@@H]1O` (some centres undefined) [stibogluconate] + O=C(O)C(=O)Nc1sc2c(c1C(=O)O)CCNC2 [TCS401] (first compound 2 µM, partner dose 1.66667 µM): 89.6%; `O=C(Nc1cc(C(F)(F)F)cc(C(F)(F)F)c1)c1cc(Cl)ccc1O` + CS(=O)(=O)c1ccc(C(=O)Nc2ccc(Cl)c(-c3ccccn3)c2)c(Cl)c1 [vismodegib] (first compound 0.016 µM, partner dose 1 µM): 104%.
`O=C(Nc1cc(C(F)(F)F)cc(C(F)(F)F)c1)c1cc(Cl)ccc1O` + COc1ccc(Cl)c(Nc2nc3ccccc3nc2NS(=O)(=O)c2cccc(NC(=O)C(C)(C)N)c2)c1 [XL147] (first compound 0.016 µM, partner dose 0.8 µM) came in with a cell count of 103%.
For `O=C(O)c1ccc2c(c1)nc(Nc1cccc(Cl)c1)c1ccncc12` + Cn1nnc2c(C(N)=O)ncn2c1=O [temozolomide] (first compound 0.4 µM, partner dose 2 µM), the cell count was found to be 94.8%.
On the same count and under the same terms, next, `O=C(O)c1ccc2c(c1)nc(Nc1cccc(Cl)c1)c1ccncc12` + CC1(C)NC(=O)N(c2ccc([N+](=O)[O-])c(C(F)(F)F)c2)C1=O [nilutamide] (first compound 0.4 µM, partner dose 1 µM): 91.9%.
`O=C(O)c1ccc2c(c1)nc(Nc1cccc(Cl)c1)c1ccncc12` + Oc1nc(-c2ccc(C(F)(F)F)cc2)nc2c1CSCC2 [XAV939] (first compound 0.4 µM, partner dose 2 µM) had a cell count of 108%.
The same measure, in the same setting: the figure for `O=C(O)[C@@H]1[O][Sb](=[O])([O][Sb]2(=[O])[O][C@H]([C@H](O)CO)[C@H](O)[C@H](C(=O)O)[O]2)[O][C@H]([C@H](O)CO)[C@@H]1O` (some centres undefined) [stibogluconate] + C#Cc1cccc(Nc2ncnc3cc(OCCOC)c(OCCOC)cc23)c1 [erlotinib] (first compound 2 µM, partner dose 0.8 µM) is 94.5%.
For `O=C(O)[C@@H]1[O][Sb](=[O])([O][Sb]2(=[O])[O][C@H]([C@H](O)CO)[C@H](O)[C@H](C(=O)O)[O]2)[O][C@H]([C@H](O)CO)[C@@H]1O` (some centres undefined) [stibogluconate] + C[C@@H]1CCN(C(=O)CC#N)C[C@@H]1N(C)c1ncnc2[nH]ccc12 [CP690550] (first compound 2 µM, partner dose 1 µM), the cell count worked out at 102%.

Source of the values: the supplement of paper PMC4604168 (melanoma cell lines).
